Assay results from the supplement of paper PMC3334620.
In all, about 33,000 sequences were measured (“E-score (-0.5 to 0.5)”: median about -0.01, highest 2% from about 0.26 on). The list shows a part of the results.

Target: Ste12 (UniProt P13574)
Test: PBM E-score (8-mer binding enrichment) (E-score (-0.5 to 0.5)); higher = stronger / more preferred TF binding; most listed sequences are background and not binding sites
Conditions: protein concentration: 200 nM; construct: GST-DNA-binding domain
Summary of the method: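 E-scores (a modified Wilcoxon-Mann-Whitney statistic) were assigned by the Universal PBM Analysis Suite to every ungapped eight-base word pooled with its reverse complement. The input came from universal all-10-mer Agilent arrays made double-stranded by primer extension and probed with GST-tagged yeast transcription factors at about 100-200 nM. Fluorescent anti-GST detected bound protein, and masliner normalised the scans.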

Row | Sequence | PBM E-score
1 | CCGATTAA | 0.00959
2 | GCCGTCCC | -0.0616
3 | GTCGCACA | 0.00167
4 | GCGCCAAA | 0.107
5 | CCTCGGAC | 0.00929
6 | ACTCGACG | 0.0976
7 | GCCTCCGC | -0.0888
8 | CATATGGG | 0.0935
9 | CGATGAAA | 0.289
10 | CAAATCAC | -0.0631
11 | AGATGCCT | -0.00729
12 | AGTAAACG | 0.082
13 | ATAGGCTA | 0.0305
14 | CCTAATTC | 0.0851
15 | TGCAGGAA | 0.0964
16 | AAAAACCG | 0.178
17 | GTAGATTA | 0.127
18 | CTAGACAC | -0.165
19 | ATAGGAGC | -0.138
20 | AATTTCGA | 0.199
21 | GAAGAGAA | 0.132
22 | AAGACGGA | 0.119
23 | TATCTGAA | 0.135
24 | CTCGACCC | -0.0876
25 | CTCTTTGC | -0.188

Row | Sequence | PBM E-score
26 | AACAGTTC | 0.0905
27 | GTTAACAA | 0.138
28 | GAGAGGTA | -0.257
29 | CAACTTTC | 0.149
30 | CGGTGCAG | -0.0602
31 | ACCTCTAC | -0.0118
32 | GGACCCCA | -0.101
33 | CCCTCCCA | 0.33
34 | AACAAGTA | 0.00602
35 | AACCTCTG | 0.0563
36 | TGCGCCAA | 0.131
37 | CGGGGTCA | -0.0216
38 | CCTGGGAC | -0.239
39 | ACTGGGTC | -0.21
40 | TGGCGCCA | -0.0868
41 | GGAAAGAA | 0.258
42 | ATGGTATA | 0.0689
43 | CAATAGCA | -0.164
44 | ACTACGCC | 0.0102
45 | ATAACATC | 0.0956
46 | AATTTACA | 0.181
47 | AGTATACG | -0.0281
48 | CCCCTTAC | -0.189
49 | CGTCTCAA | 0.233
50 | AAAGAAAA | 0.351

Row | Sequence | PBM E-score
51 | GTAATAGA | -0.018
52 | ATTCTAAC | -0.0101
53 | GCTTACGA | -0.0479
54 | CGCCATCC | -0.0776
55 | GTAAACAA | 0.195
56 | GCTATACA | -0.191
57 | ACCATAGT | -0.00208
58 | GTGTCTTA | -0.0314
59 | ATGGGAAA | 0.0119
60 | CACTCCAA | -0.0681
61 | CAAAAGTC | 0.0372
62 | ATAGCTCC | -0.162
63 | TATCCCCA | 0.148
64 | GAATAGTC | 0.0149
65 | AGTACGCG | -0.177
66 | GACTCGGC | -0.049
67 | GCGTAATA | 0.0936
68 | CTTCCGGA | -0.0404
69 | GTTCAATA | -0.0143
70 | AAGATCCA | -0.00319
71 | CTTTCTTA | 0.0052
72 | CGTGAAAC | 0.364
73 | ACAATGAT | 0.142
74 | GTGAGGAA | 0.0279
75 | ACGCAAAT | 0.141

Row | Sequence | PBM E-score
76 | CGACTTGC | -0.00012
77 | TACAGCTA | -0.217
78 | TCCACGAA | 0.102
79 | CATGAGGA | -0.114
80 | CCCCACGA | -0.00593
81 | GACATTAA | 0.173
82 | CCGTGCCC | -0.155
83 | AGCTCCTC | -0.172
84 | AAACGAGT | 0.128
85 | AACGATGC | -0.214
86 | AGTTTCAA | 0.307
87 | CTCAATGC | -0.0165
88 | ATGTTGAA | 0.184
89 | TAGATATA | 0.241
90 | ACATTCAG | -0.0388
91 | AGCCAGTA | -0.0929
92 | AAATAAAA | 0.291
93 | ATGATTAC | -0.124
94 | GAGGAATC | -0.169
95 | AATAACCA | 0.112
96 | AATACAAC | 0.157
97 | CTTACCAC | -0.061
98 | AGTCGGCC | -0.0268
99 | GGGTTTAA | 0.215
100 | ATATAAAC | 0.161

Row | Sequence | PBM E-score
101 | CGCACGGC | -0.00864
102 | AGACAGCG | -0.128
103 | GTCGGTAA | 0.0284
104 | GTTGCGAA | 0.093
105 | TCGGGCAA | -0.136
106 | CTACAGGA | -0.14
107 | AAATGATC | -0.0582
108 | CGGGCTCC | -0.132
109 | CAGGACCG | -0.0708
110 | GGCCTTAC | -0.164
111 | CGGGCGGA | -0.012
112 | AAAGATAA | 0.179
113 | AGGAAACT | -0.0643
114 | ACCCTATA | -0.122
115 | ATTCCATC | -0.0115
116 | CTTATCAC | 0.0799
117 | GGATGCGA | -0.201
118 | CGAAGGGC | -0.198
119 | CCCAATTA | 0.156
120 | CCACATGA | 0.0512
121 | GAAGTGAC | -0.151
122 | CGGGACTA | -0.0932
123 | AAAATATG | 0.241
124 | GAAACGAA | 0.367
125 | CTCACGTC | -0.034

Row | Sequence | PBM E-score
126 | ACAGGATC | -0.014
127 | ACGTTTAG | -0.156
128 | GCCAATTA | 0.05
129 | CGTGTGTC | 0.019
130 | ATGCTTCG | -0.132
131 | ATGCAAAG | -0.115
132 | GCGTTAGA | -0.078
133 | AATTAACG | 0.0868
134 | ATTACCTC | 0.0901
135 | AACGCGAC | 0.0421
136 | ATAGTCAG | -0.144
137 | CAAACGCG | 0.292
138 | GGGCTTCA | -0.192
139 | AGCCGCAA | 0.00182
140 | CCGCTTTC | 0.0921
141 | GCACCAGA | -0.115
142 | TCACGAGA | -0.0295
143 | CACTCCTG | -0.125
144 | ACTGAAGC | 0.0216
145 | ACAATAAT | 0.0597
146 | CGACCTCG | -0.111
147 | GAAAGTCA | 0.0954
148 | AAAGCCCA | 0.00361
149 | AAGAATTA | 0.129
150 | ATGATAGC | -0.0245

Row | Sequence | PBM E-score
151 | TATTTAGA | 0.121
152 | GTCTAGAA | -0.0207
153 | CTGAAGGC | -0.235
154 | CATCCCCG | 0.247
155 | CAAAATTC | 0.195
156 | ACCCGGAA | 0.101
157 | TGATGCAA | 0.137
158 | GACAAACA | 0.0473
159 | ATCTGGTC | 0.101
160 | ACGTATAT | 0.134
161 | CCCGAAAC | 0.303
162 | TGCCGACA | -0.0784
163 | CCATTGTA | 0.1
164 | TACAAGCA | 0.00789
165 | AATGCACT | 0.00621
166 | ATGCGAAT | 0.124
167 | AATAATGA | 0.0925
168 | GAAAATGA | 0.204
169 | CGCGAGGC | 0.155
170 | AATAGATC | 0.0946
171 | AACCTTAT | 0.138
172 | ACTCCGGA | 0.0916
